From PubChem BioAssay AID1347043 (National Center for Advancing Translational Sciences (NCATS), 2019)
The campaign covered roughly 76,000 compounds. About 1,900 (2.5%) were called active. Inconclusive means that the source gave no clear call. Such entries were picked first, then a sample of the others. Calls follow the shape of the dose curve; as a rule, active = well fitted inhibition curve with a large enough effect; inconclusive = small, poorly fitted or top-dose-only effect; inactive = flat fitted curve, though single readings scatter. A potency beside an inconclusive call is a rough fit, not a confirmed value.

Target: Luciferin 4-monooxygenase (Photinus pyralis) (UniProt P08659)
Chain of UniProt P08659 (P08659 whole entry, looked up): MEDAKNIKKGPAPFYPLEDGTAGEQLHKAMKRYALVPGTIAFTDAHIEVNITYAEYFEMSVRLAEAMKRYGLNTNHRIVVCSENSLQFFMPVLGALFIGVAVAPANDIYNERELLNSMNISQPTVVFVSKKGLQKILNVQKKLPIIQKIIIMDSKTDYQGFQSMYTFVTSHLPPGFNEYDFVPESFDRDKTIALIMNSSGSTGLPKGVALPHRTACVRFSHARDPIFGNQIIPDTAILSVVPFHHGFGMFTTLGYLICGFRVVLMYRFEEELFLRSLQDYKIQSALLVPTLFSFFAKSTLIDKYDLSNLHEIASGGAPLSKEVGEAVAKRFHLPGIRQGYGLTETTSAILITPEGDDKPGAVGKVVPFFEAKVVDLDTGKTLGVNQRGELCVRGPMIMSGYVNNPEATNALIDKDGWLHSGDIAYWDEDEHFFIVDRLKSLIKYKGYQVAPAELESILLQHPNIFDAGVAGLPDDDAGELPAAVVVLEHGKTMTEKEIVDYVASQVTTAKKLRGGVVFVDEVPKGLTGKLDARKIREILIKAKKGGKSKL
Assay: Firefly luciferase inhibition profiling of diverse chemical library using quantitative high-throughput screening; also: nearly all actives have a fitted effect of over 65% in size
Conditions: purified P. pyralis luciferase, luminescence, biochemical; activity change, negative = inhibition: at 115 µM (top of the series) unless noted
Procedure, shortened: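 FLuc 10nM, D-luciferin 10uM, ATP 10uM, Mg acetate 10mM, Tris acetate pH 7.5, Tween/BSA; cpd qHTS; enzyme added last; CCD luminescence.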
% is scaled to controls: 0 for no effect and ±100 for the full control effect; potency is read from the fitted curve at half-maximal effect; tags tell the direction and shape of the fitted curve.

Row | SMILES | Potency | activity change, negative = inhibition
1 | Cc1ccc2c(C)c(C(=O)N(C)CCOc3ccccc3)oc2c1C | active: 39.8 µM | 
2 | COc1ccc(/C=C/c2ccc3c(c2)C(=O)N2CC[C@H](NC(=O)c4cnccn4)[C@H]2C(=O)N3)cc1 | active: 7.94 µM | 
3 | c1ccc(-c2cc3c(cn2)NCCN(Cc2ccsc2)C3)cc1 | inconclusive: 112 µM [inhibitor, partial curve, poor fit] | 
4 | CN(CCO)C[C@@H]1CN(C(=O)c2ccc3c(c2)CCC3)C[C@@H]1CO |  | inactive: 0.581%
5 | COc1cccc(-c2cn3c(n2)N(C(=O)c2ccco2)CCC3)c1 | inconclusive: 50.1 µM [inhibitor, partial curve] | 
6 | Cc1ccc(C2Cn3nnc(C(=O)N4CCC(C(=O)NC5CCCCCC5)CC4)c3CO2)cc1 (stereo not drawn) | inconclusive: 50.1 µM [inhibitor, partial curve] | 
7 | CCc1noc(-c2nc(-c3ccc4c(c3)OCO4)no2)n1 | active: 10 µM | 
8 | Cc1ccc(NC(=O)c2ccc3c(c2)N(C)C2CCCCN2C3=O)cc1 (stereo not drawn) | active: 39.8 µM | 
9 | CCCN(C)c1nccnc1OC1CCN(C(=O)C2CCC2)C1 (stereo not drawn) | inconclusive: 39.8 µM [inhibitor, partial curve] | 
10 | Cc1cc(=O)n(CC(=O)Nc2cc(Cl)ccc2C)c(N(C)Cc2ccccc2)n1 |  | inactive: 6.47%
11 | O=C1Cc2c(-c3ccccc3)n[nH]c2CN1CCOc1ccccc1 | inconclusive: 2.24 µM [inhibitor, full curve] | 
12 | COc1cc(NC(=O)NC[C@H]2O[C@@H](CO)[C@@H](O)[C@H]2N2CCC(C)CC2)cc(OC)c1 |  | inactive: 3%
13 | CC(c1cccs1)N(C)C(=O)c1ccc(C(F)(F)F)cc1 (stereo not drawn) | inconclusive: 100 µM [inhibitor, partial curve, poor fit] | 
14 | CC(=O)NC1(C)CCN(Cc2ccc(-c3cccc(C(F)(F)F)c3)cc2)C1 (stereo not drawn) | active: 63.1 µM | 
15 | COCCOC1CCN(C(C(=O)O)c2cc(C)c(OC)c(C)c2)CC1 (stereo not drawn) |  | inactive: -6.33%
16 | CN(C)c1ccc(C(=O)NC2CCCN(c3cc(-c4ccc(F)cc4)[nH]n3)C2)cc1 (stereo not drawn) | inconclusive: 10 µM [inhibitor, full curve] | 
17 | CCNC(=O)C1C(c2cccc(NC(=O)c3ccccc3)c2)OC(=O)N1Cc1ccccc1 (stereo not drawn) | inconclusive: 44.7 µM [inhibitor, partial curve, poor fit] | 
18 | O=C(Nc1ccc2c(c1)OCCO2)N1CCC(Cc2nc(-c3ccncc3)n[nH]2)CC1 | active: 79.4 µM | 
19 | Cc1ccc(CN2C(=O)[C@@H]3C[C@@H](O)CN3C3(CN(Cc4cccc(F)c4)C3)C2=O)o1 |  | inactive: 1.2% [at 172 µM]
20 | Cc1noc2c(-c3cccc(CO)c3)cc(-c3cccs3)nc12 |  | inactive: 2.98% [at 172 µM]
21 | CCc1[nH]c2c(CNC(=O)C(C)O)cc(C)cc2c1C (stereo not drawn) |  | inactive: -0.196%
22 | Fc1ccc(N2CCN(c3nc(-c4ccccc4F)no3)CC2)cc1 | inconclusive: 3.55 µM [inhibitor, full curve] | 
23 | COc1cccc(-c2noc(N3CCCC3)n2)c1OC | inconclusive: 44.7 µM [inhibitor, partial curve] | 
24 | CC(C)(C)c1coc([C@@H]2COCCN2Cc2ccc(Cl)cc2)n1 |  | inactive: -3.1% [at 172 µM]
25 | CN(Cc1nc(-c2ccccc2)cs1)C(=O)COc1ccc(F)cc1F |  | inactive: -5.44%

Row | SMILES | Potency | activity change, negative = inhibition
26 | CNC(=O)CCn1ncc2cc(OCc3ccccc3-c3ccccc3F)ccc21 | inconclusive: 79.4 µM [inhibitor, partial curve] | 
27 | CN(C)CCOCC1(C)COc2ccc(C(=O)Nc3ccc4[nH]ccc4c3)cc2N1 (stereo not drawn) | active: 50.1 µM | 
28 | COc1cccc(Nc2ccc(CN3CCC(C)(NC(C)=O)C3)cc2)c1 (stereo not drawn) | active: 3.98 µM | 
29 | OC(CNc1nccc(-c2cccnc2)n1)COc1ccc(Cl)cc1 (stereo not drawn) | inconclusive: 50.1 µM [inhibitor, partial curve, poor fit] | 
30 | Cc1ncccc1C(=O)N1CC(Oc2ccccc2-c2nc(-c3ccccc3)no2)C1 | active: 39.8 µM | 
31 | OCc1ccc(CN2C[C@H](O)C[C@H]2c2nc(-c3ccc(OC(F)(F)F)cc3)no2)o1 | active: 44.7 µM | 
32 | CNC(=O)CC1CCOC2(CCN(C(=O)Nc3ccc4c(c3)OCCO4)CC2)C1 (stereo not drawn) | inconclusive: 89.1 µM [inhibitor, single point] | 
33 | CNC(=O)[C@@H](c1ccc(Cl)cc1)N1CCC[C@H]1C(=O)NC(C)C |  | inactive: -2.2% [at 172 µM]
34 | COc1cccc(NC(=O)Cn2c(=O)c3c(n2Cc2ccccc2)CN(Cc2ccccc2)CC3)c1 | inconclusive: 44.7 µM [inhibitor, partial curve] | 
35 | Cc1onc(C(=O)NC2CCN(c3ccc(=O)n(C)n3)CC2)c1CN1CCCC1 | inconclusive: 50.1 µM [inhibitor, partial curve] | 
36 | CCc1noc(-c2nc(-c3ccccc3C)no2)n1 | active: 14.1 µM | 
37 | COCc1ncc(C)n1CCNC(=O)c1c(C)noc1C |  | inactive: -2.52%
38 | CCOC(=O)N1CCC(N2CCCCC(N)C2)CC1 (stereo not drawn) |  | inactive: 1.61%
39 | O=c1c2nc(N3CCC(c4ccccc4)CC3)ccc2ncn1Cc1ccccn1 | active: 63.1 µM | 
40 | O=C(NCCc1ccccc1)C1CCN(C(=O)N2CC3CC(C2)[C@H]2CCCC(=O)N2C3)CC1 (stereo partly drawn) | inconclusive: 44.7 µM [inhibitor, partial curve, poor fit] | 
41 | CCOc1ccccc1NC(=O)N1C[C@@H](F)C[C@H]1C(=O)N1CCc2ccccc2C1 |  | inactive: 0%
42 | CC(=O)N1CCc2ccc(C(=O)N3CCCCCC3)cc21 |  | inactive: -12.8%
43 | CN(Cc1cccn1C)C(=O)Nc1ccc(Cl)cc1 | inconclusive: 100 µM [inhibitor, partial curve] | 
44 | CC(=O)NC1(C)CCN(Cc2ccc(-c3ccc4c(ccn4C)c3)cc2)C1 (stereo not drawn) | active: 4.47 µM | 
45 | CCOc1ccc(CC(=O)N2CC(c3nnc(-c4ccncc4)o3)C3(CCOCC3)C2)cc1 (stereo not drawn) |  | inactive: 1.74%
46 | Cc1cc(-c2cc3c(cn2)CN(Cc2ccccc2O)CCN3)ccn1 | active: 5.62 µM | 
47 | CSc1ccc(-c2ccc3c(c2)C(=O)N2CCN(C(=O)CCC(=O)O)C[C@H]2C(=O)N3)cc1 | active: 31.6 µM | 
48 | O=C(COc1ccc(Cl)cc1)Nc1cccc(-c2nnc3n2CCCC3)c1 | inconclusive: 39.8 µM [inhibitor, partial curve] | 
49 | Cc1cc(N2CCC(NC(=O)c3ccc4[nH]ccc4c3)C2=O)ccc1F (stereo not drawn) | inconclusive: 50.1 µM [inhibitor, partial curve] | 
50 | CN(C)c1cccc(C(=O)N2CCN(c3cc(-c4ccc(Cl)cc4)[nH]n3)CC2)c1 | active: 28.2 µM | 

Row | SMILES | Potency | activity change, negative = inhibition
51 | CNC(=O)CCn1ncc2cc(OCc3ccccc3-c3ccccc3OC)ccc21 | active: 39.8 µM | 
52 | Cc1ccc(-c2cc(N3CCC(CNC(=O)c4ccc(N(C)C)cc4)CC3)n[nH]2)cc1 | inconclusive: 44.7 µM [inhibitor, partial curve] | 
53 | CC1=C[C@@H](CNC(C)C)[C@H](C(C)C)C[C@H]1Cc1nnc(-c2ccc(C)cc2)o1 | inconclusive: 126 µM [inhibitor, single point] | 
54 | Cc1ccc(-c2cc3c(=O)n(CCNC(=O)c4ccc(N(C)C)cc4)ccn3n2)c(C)c1 | active: 2.51 µM | 
55 | CCc1ccc(NC(=O)c2cc3n(n2)CC(c2ccc4c(c2)OCO4)OC3)cc1 (stereo not drawn) | inconclusive: 31.6 µM [inhibitor, partial curve] | 
56 | COc1ccc(-c2cc(C[C@@H]3CC[C@H](O)[C@@H](CN(Cc4ccccc4OC)Cc4ccccc4OC)O3)no2)cc1 | inconclusive: 44.7 µM [inhibitor, partial curve] | 
57 | CC(NC(=O)c1ccc(C(C)(C)C)cc1)C(=O)N1CCN(c2ccccn2)CC1 (stereo not drawn) | inconclusive: 44.7 µM [inhibitor, partial curve] | 
58 | O=C(C1CCOCC1)N1CC(Oc2ccc(-c3nc(-c4ccccc4)no3)cc2)C1 | inconclusive: 15.8 µM [inhibitor, full curve] | 
59 | O=C(Nc1ccc2c(N3CCCCC3)ncnc2c1)c1ccc(F)cc1 | inconclusive: 35.5 µM [inhibitor, partial curve] | 
60 | CC(C)CNC(=O)N1CC(n2cc(C(=O)NCc3ccncc3)nn2)C1 |  | inactive: -1.91%
61 | O=C(Nc1cccc(F)c1)c1ccc(Cn2ccn3nc4c(c3c2=O)CCCC4)cc1 | inconclusive: 28.2 µM [inhibitor, partial curve] | 
62 | CCOc1cccc(-c2noc(-c3ncn4c3COC(c3ccc(OC)cc3)C4)n2)c1 (stereo not drawn) |  | inactive: -5.57%
63 | O=C(NCCCc1ccccc1)C1CCN(C(=O)c2ncn3c2COC(c2ccccc2)C3)CC1 (stereo not drawn) | active: 15.8 µM | 
64 | CC1CCN(C(=O)c2ccc3c(c2)C(O)CCCCCN3C)CC1 (stereo not drawn) | inconclusive: 56.2 µM [inhibitor, partial curve] | 
65 | C=CCN(C)C(=O)[C@@H](C)C1CC[C@@]2(C)Cc3sc(Nc4c(Cl)cccc4Cl)nc3[C@@H](C)[C@@H]2[C@H]1O (stereo partly drawn) |  | inactive: -23.1%
66 | NC1CCCN(Cc2cc(F)ccc2-n2cccn2)CC1 (stereo not drawn) |  | inactive: 7.53%
67 | O=C(NC[C@H]1COCc2nc3cc(F)ccc3n21)C1CC1 |  | inactive: -1.09% [at 230 µM]
68 | COCCNC(=O)c1nc2c(o1)CCN(Cc1cc(C)cc(F)c1)CC2 |  | inactive: -5.25% [at 172 µM]
69 | Cc1oc(C(O)c2ccccc2)nc1C(=O)Nc1ccc(C(=O)Nc2ccccc2)cc1 (stereo not drawn) | inconclusive: 56.2 µM [inhibitor, full curve] | 
70 | CC(=O)Nc1ccc(NC(=O)c2cccc(CN3CCCC(C#N)C3)c2)cc1 (stereo not drawn) | inconclusive: 89.1 µM [inhibitor, single point] | 
71 | CC(C)CN1C(=O)CCc2cc(NC(=O)c3ccc4c(c3)OCO4)ccc21 | inconclusive: 44.7 µM [inhibitor, partial curve] | 
72 | O=C(Cn1ccn2nc(-c3ccccc3)c(CO)c2c1=O)Nc1cccc(Br)c1 |  | inactive: -0.86%
73 | CNC(=O)[C@@H]1C[C@@H](O)CN1C1CCN(C(=O)CCCc2ccccc2)CC1 | inconclusive: 20 µM [inhibitor, full curve] | 
